Results published in USRE50631E1, “ROR1 antibody immunoconjugates” (VelosBio Inc., priority 2017, dated 2025).

Experiments:
WSU-DLCL = test: Cytotoxicity in vitro (CellTiter-Glo viability), WSU-DLCL; assay type: cell-based, human; details: WSU-DLCL (DLBCL), 72 hours
DLBCL-GCB PDX = DLBCL-GCB PDX mouse model; assay type: in vivo; details: 24 days
Protocol: Germinal center B-cell like diffuse large B-cell lymphoma (DLBCL-GCB) cells were engrafted subcutaneously into mice, and the engrafted mice were randomized into five groups, 6 mice/group. The groups were vehicle control, 10 mg/kg Ab1, 50 mg/kg venetoclax, 10 mg/kg Ab1 plus 50 mg/kg venetoclax, and 5 mg/kg ADC-A. Ab1 and ADC-A were administered IV, qw and venetoclax was administered PO qd.

ES2 = test: Cytotoxicity in vitro (CellTiter-Glo viability), ES2; assay type: cell-based, human; details: ES2 (Ovarian), 72 hours
Mec-ROR = test: Cytotoxicity in vitro (CellTiter-Glo viability), Mec-ROR; details: read-out: EC50 (nM), cytotoxicity in vitro; Mec-ROR (CLL), 72 hours
Protocol: Cells were cultured in log phase growth and distributed into 96-well plates. Each cell line was plated at a slightly different cell density, ranging from 5×10^3 to 50×10^4 cells/well. Cells in duplicate were incubated with 3-fold serial dilution of a particular immunoconjugate (10, 3.33, 1.11, 0.37, 0.12, 0.041, 0.014, and 0.0045 μM) for 72 hours at 37° C. and 5% CO2. After treatment, cells were incubated with an equal volume of CellTiter-Glo® reagent (Promega Inc.) for 15 minutes at room temperature and viability was determined by a luminometer. Curves and EC50 values were generated in GraphPad Prism using a sigmoidal dose response non-linear regression fit.
Cells were grown and distributed into 96-well plates as described in Example 5. Cells in duplicate were incubated with 3-fold serial dilution of a particular immunoconjugate (660, 220, 73.3, 24.4, 8.14, 2.71, 0.91, and 0.3 nM) for 72 hours at 37° C. and 5% CO2. In some experiments, cells were incubated with an immunoconjugate for 96 hours instead of 72 hours (values highlighted with “*”). After treatment, cell viability was determined as described in Example 5. Cell surface ROR1 expression was assessed by quantitative flow cytometry and ROR1 expression was characterized as MFI>30 or MFI<30 (MFI: mean fluorescent intensity).
The MEC1 cell line, which is derived from B-chronic lymphocytic leukemia in prolymphocytoid transformation, was transfected with either an expression vector encoding human ROR1 or a control vector, and stable cell lines were created using selection media containing G418.

Jeko-1 cells = test: Internalization by Jeko-1 cells (pulse-chase flow cytometry); assay type: cell-based, human; details: Jeko-1 cells
Protocol: Multiple methods were used to determine antibody internalization. In one approach, internalization was measured using a pulse-chase methodology that quantitates non-internalized, cell surface antibody at 15, 30, 60, 120, and 240 minutes using flow cytometry. Jeko-1 cells were grown and harvested prior to confluency, washed with cold PBS and resuspended at 1×10^7 in cold FACS buffer (PBS+2% FBS-Fisher/Gibco Cat. No. 16140071). 1×10^6 cells were added to microcentrifuge tubes or wells. Internalization of Ab1 and ADC constructs by the cells was determined at saturating antibody concentrations, using 30 μg/ml for Jeko-1 cells and 100 μg/mL for MDA-MB-231 cells. 10× stock solutions of ADC constructs or Ab1 were prepared (300 μg/ml for use with Jeko-1 cells or 1 mg/ml for use with MDA-MB-231 cells) and 10 μL of sample or buffer control was added to the following (adding additional tubes for each time point): • a) Unstained • b) Secondary antibody only • c) Negative Control hIgG mAb at 30 μg/ml—time 0 • d) Positive Control ADC construct or Ab1 at 30 μg/ml—time 0 • e) ADC construct or Ab1—time point 1 • f) ADC construct or Ab1—time point 2, etc.
Cells and antibody were incubated on ice for 20 minutes, spun at 300×g for 4 minutes, washed twice with 200 μL of FACS buffer, and resuspended in 100 μL of FACS buffer. The samples were incubated at 37° C. for 15, 30, 60, 120, and 240 minutes, as indicated above. Internalization was terminated by transferring the samples to ice. A time course for antibody internalization was generated for each test article as described above, after which antibody remaining on the cell surface was detected using a PE-labeled secondary antibody. Cells were spun at 250×g, washed twice with FACS buffer and resuspended in 100 μL of FACS buffer. […] The median fluorescent intensity (MFI) was quantitated and the degree of receptor internalization was determined using the amount of the antibody or ADC present at each time point when compared to the amount present at time=0. […]

RPMI-8229 = test: Cytotoxicity in vitro (CellTiter-Glo viability), RPMI-8229; assay type: cell-based, human; details: RPMI-8229 (MM), 72 hours
Bx-PC3 = test: Cytotoxicity in vitro (CellTiter-Glo viability), Bx-PC3; assay type: cell-based, human; details: Bx-PC3 (Pancreatic), 72 hours
[1] = biological target: T1, cell surface ROR1 on Jeko-1 cells (Homo sapiens, UniProt Q01973); test: Cell surface ROR1 expression during internalization, Jeko-1 cells; assay type: cell-based; details: up to 4 hours
T1 construct: The Jeko-1 cell line, from mantle cell lymphoma, is a suspension cell line; host or cells: Jeko-1 (human mantle cell lymphoma)
T1 sequence (Q01973 30-937): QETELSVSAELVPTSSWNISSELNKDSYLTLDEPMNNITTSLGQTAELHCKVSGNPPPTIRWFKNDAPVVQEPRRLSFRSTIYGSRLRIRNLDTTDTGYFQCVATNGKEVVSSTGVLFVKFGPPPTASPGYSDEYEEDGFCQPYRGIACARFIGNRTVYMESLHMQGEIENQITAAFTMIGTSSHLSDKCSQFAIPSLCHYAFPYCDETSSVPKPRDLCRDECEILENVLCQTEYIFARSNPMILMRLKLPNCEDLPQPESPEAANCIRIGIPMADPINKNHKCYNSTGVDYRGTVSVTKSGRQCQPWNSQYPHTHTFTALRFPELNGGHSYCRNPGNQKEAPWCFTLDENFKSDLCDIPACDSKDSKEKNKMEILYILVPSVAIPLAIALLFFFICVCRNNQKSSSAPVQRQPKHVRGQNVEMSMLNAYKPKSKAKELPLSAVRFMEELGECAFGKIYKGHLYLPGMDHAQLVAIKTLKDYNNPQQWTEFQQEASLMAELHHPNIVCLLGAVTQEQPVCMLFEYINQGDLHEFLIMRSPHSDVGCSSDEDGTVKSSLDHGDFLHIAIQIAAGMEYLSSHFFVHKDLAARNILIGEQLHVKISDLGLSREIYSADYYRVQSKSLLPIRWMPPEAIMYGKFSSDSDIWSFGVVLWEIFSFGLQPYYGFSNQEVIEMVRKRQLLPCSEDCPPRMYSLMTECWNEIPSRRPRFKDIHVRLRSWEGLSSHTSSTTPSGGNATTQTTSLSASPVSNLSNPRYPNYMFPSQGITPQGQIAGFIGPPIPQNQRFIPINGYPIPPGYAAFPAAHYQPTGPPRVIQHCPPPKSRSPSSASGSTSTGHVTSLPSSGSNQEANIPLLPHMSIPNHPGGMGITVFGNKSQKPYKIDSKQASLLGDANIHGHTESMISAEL

B1: ADC-A: Ab1 conjugated via MAL (mc)-VC-PAB linker to MMAE (conjugate)
heavy: QVQLQESGPGLVKPSQTLSLTCTVSGYAFTAYNIHWVRQAPGQGLEWMGSFDPYDGGSSYNQKFKDRLTISKDTSKNQVVLTMTNMDPVDTATYYCARGWYYFDYWGHGTLVTVSS[skipping human IgG1 constant region]
light: DIVMTQTPLSLPVTPGEPASISCRASKSISKYLAWYQQKPGQAPRLLIYSGSTLQSGIPPRFSGSGYGTDFTLTINNIESEDAAYYFCQQHDESPYTFGEGTKVEIKRTVAAPSVFIFPPSDEQLKSGTASVVCLLNNFYPREAKVQWKVDNALQSGNSQESVTEQDSKDSTYSLSSTLTLSKADYEKHKVYACEVTHQGLSSPVTKSFNRGEC
With B1 the EC50 (WSU-DLCL) was 68 nM, the tumor regression (DLBCL-GCB PDX; 5 mg/kg ADC-A IV qw) was “regression (104%) with” and the tumor response (DLBCL-GCB PDX; ADC-A 5 mg/kg IV qw, Ab1 10 mg/kg IV qw, venetoclax 50 mg/kg PO qd) was “complete tumor regression in all animals treated”. The EC50 (ES2) was 170 nM, the EC50 (Mec-ROR) was 208 nM and the “internalization compared with Ab1 / ADC-A” value (Jeko-1 cells) was “did not negatively impact binding or internalization”. For the same molecule, the EC50 (RPMI-8229) was 174 nM, the EC50 (Bx-PC3) was 47.4 nM and the “cell surface ROR1 expression during treatment” value [1] was “ROR1 expression was maintained, or slightly increased”.
